Assay results published in PubChem BioAssay AID488969 (Vanderbilt High Throughput Screening Facility, 2010).
The full ranking holds about 110,000 compounds; the median of “z-score” is about -0.1, and the highest 2% start at about 2. The list shows a part of the results. Activity calls are given as the source filed them.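 The calls were made as follows: active = z-score in the third read window above 3 or below -3; inactive = the rest.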

molecular target: Metabotropic glutamate receptor 8 (Rattus norvegicus) (UniProt P70579); test: rat mGluR8 modulators via GIRK flux, primary screen, cell-based, thallium flux, HTS (AID 488969); details: HEK293 rat mGluR8, GIRK (G protein-gated inwardly rectifying potassium channel) thallium flux, FluoZin2; at 10 µM; stronger effect = higher value; submaximal glutamate (EC20) added with thallium
UniProt P70579, sequence (P70579 whole entry, looked up): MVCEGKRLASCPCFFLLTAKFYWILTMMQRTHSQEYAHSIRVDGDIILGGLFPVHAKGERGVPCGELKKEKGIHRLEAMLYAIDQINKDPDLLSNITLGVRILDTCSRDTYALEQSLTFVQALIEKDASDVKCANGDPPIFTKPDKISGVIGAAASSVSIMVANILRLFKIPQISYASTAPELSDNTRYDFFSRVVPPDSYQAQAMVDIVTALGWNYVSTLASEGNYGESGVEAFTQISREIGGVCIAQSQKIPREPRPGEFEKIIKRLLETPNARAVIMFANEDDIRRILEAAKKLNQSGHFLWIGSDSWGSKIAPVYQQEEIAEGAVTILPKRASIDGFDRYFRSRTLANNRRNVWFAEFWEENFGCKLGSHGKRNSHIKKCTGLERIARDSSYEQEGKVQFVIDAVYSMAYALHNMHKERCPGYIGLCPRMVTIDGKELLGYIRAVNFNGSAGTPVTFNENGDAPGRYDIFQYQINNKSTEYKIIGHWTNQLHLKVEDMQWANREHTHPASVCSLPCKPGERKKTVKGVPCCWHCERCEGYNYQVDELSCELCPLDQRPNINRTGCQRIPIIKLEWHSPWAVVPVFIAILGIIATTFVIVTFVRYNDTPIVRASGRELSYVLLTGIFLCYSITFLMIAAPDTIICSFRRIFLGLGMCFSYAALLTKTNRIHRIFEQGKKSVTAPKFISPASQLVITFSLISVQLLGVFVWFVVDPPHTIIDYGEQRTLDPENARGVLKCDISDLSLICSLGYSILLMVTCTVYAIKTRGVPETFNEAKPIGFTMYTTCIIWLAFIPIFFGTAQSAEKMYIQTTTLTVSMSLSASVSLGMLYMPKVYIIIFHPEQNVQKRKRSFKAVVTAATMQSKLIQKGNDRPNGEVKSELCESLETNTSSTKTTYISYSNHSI

Compound	z-score
CCOc1cc2c(C#N)c(N3CCCCC3)nc(N)c2c(N)n1	-0.553
O=C(ON=C1CCN(c2ccc([N+](=O)[O-])cc2)CC1)c1ccccc1	-0.654
Nc1cc(=O)[nH]c(=S)n1-c1cccc(C(F)(F)F)c1	-0.213
CCCCNC(=O)CSc1nc2ccccc2c(=O)n1CCNC(C)=O	-0.141
Cc1ccc(/C=C2/NC(=O)N(Cc3ccccc3)C2=O)s1	-0.0544
CCOC(=O)c1c(-c2ccc(C)o2)csc1NC(=O)CN1CCN(CC)CC1	0.301
O=C(Nc1nnc(SCc2ccc(Cl)cc2)s1)C1CCCO1 (centres undefined)	0.069
CCOC(=O)c1c(C)nc(SC)c(C#N)c1-c1ccccc1	-0.602
CCOC(=O)c1c(NC(=O)C2C3CCC(O3)C2C(=O)O)sc(C)c1-c1ccc(C)cc1 (centres undefined)	-0.26
CC(=O)c1sc(NC(=O)C=C(C)C)nc1C	0.385
COc1ccc(Nc2nc(-c3cccs3)cs2)c(OC)c1	0.0723
COC(=O)c1nn2c(C(F)(F)F)cc(-c3ccc(Br)o3)nc2c1Br	0.186
Cc1ccc(-n2c(N)c(C(=O)NCc3ccco3)sc2=S)cc1	-0.322
COc1cccc(-c2nn(-c3ccccc3)cc2/C=C(\C#N)C(=O)NCCCn2ccnc2)c1	-0.356
COc1ccc(-n2nnc3c(SCC(=O)OCc4ccccc4)ncnc32)cc1	-0.804
O=C(COC(=O)c1ccc(Br)o1)Nc1ccc(S(=O)(=O)N2CCCC2)cc1	-0.167
Cc1ccc(/C=C/c2nnc(-c3ccc(C)cc3)o2)cc1	-0.335
Brc1ccccc1-c1nnc(CSc2nnnn2-c2ccccc2)o1	0.0301
c1ccc(-c2ncnc3cc4n(c23)CCC4)cc1	-0.079
COc1cc(Cl)c(C)cc1NC(=O)CSC	0.0277
COC(=O)[C@H](CC(C)C)NC(=O)NC1CCCCC1C (some centres undefined)	-0.192
COc1cc(OC)cc(C(=O)NCc2cccnc2)c1	-0.0129
CS(=O)(=O)N(CCc1ccccc1)CC(=O)N1CCN(Cc2ccccc2)CC1	0.364

Compound	z-score
CSc1nc(-c2ccccc2)nn1C(=O)c1ccc(Cl)cc1	-0.251
CCOC(=O)c1[nH]c2ccccc2c1NC(=O)C(CC)CC	0.0802
CCN(CC)CCCN(Cc1cc2cc(OC)ccc2[nH]c1=O)C(=O)Nc1ccc(F)cc1	-0.482
COC(=O)COc1ccc(S(=O)(=O)NCc2ccco2)cc1Cl	-0.0546
Cc1nc2c(s1)sc1ccccc12	-0.637
Cc1ccc(C(NC(N)=O)c2ccccc2)cc1 (centres undefined)	-0.39
COc1ccc(N2CCN(Cc3nc4c(c(=O)[nH]c(=O)n4C)n3CC(C)=O)CC2)cc1	-0.158
Cc1ccc(Oc2nc(-c3ccccc3)ncc2S(=O)(=O)c2ccc(C)cc2)cc1	0.119
c1csc(-c2nnc3ccccn23)c1	-0.45
O=S(=O)(NCC(Nc1ccccc1)c1ccccc1)c1ccc(Cl)cc1 (centres undefined)	-0.232
CC(SC1=NCCS1)C(=O)Nc1nnc(-c2ccc(Br)cc2)s1 (centres undefined)	0.627
CCCc1nnc(NC(=O)c2ccc([N+](=O)[O-])cc2)s1	-0.172
COc1ccc(CCN(C(=O)C(F)(F)F)C(C(=O)NC2CCCC2)c2cccs2)cc1 (centres undefined)	-0.312
COc1ccc(-c2nc(-c3cccc(C)c3)nc(N3CCN(C)CC3)c2C#N)cc1	0.000744
Cc1cccc(NCc2ccccc2O)c1	0.0826
CN(C)c1nc(N)nc(CSc2nc3cc(Cl)ccc3o2)n1	0.22
O=C1c2ccccc2C(=O)N1CCc1nc(-c2cccnc2)no1	-0.203
COc1ccc(OC)c2sc(NC(=O)c3ccc(S(=O)(=O)N(C)C)cc3)nc12	-0.398
CC1CCCCC1NC(=O)COC(=O)c1c2c(nc3ccccc13)/C(=C/c1ccco1)CC2 (centres undefined)	-0.398
CCc1nc(OCc2ccccc2)c2sc3nc4c(cc3c2n1)COC(C)(C)C4	-0.296
CCCC(=O)NCCc1cc2ccc(OC)cc2[nH]c1=O	-0.0851
CC(C)Cc1cc(C(=O)Nc2cccnc2)no1	1.89
CCCC/C(C)=N/NC(=O)NC1CCCCC1	-0.359

Compound	z-score
Cc1c(C(=O)CN2CCSCC2)c2ccccc2n1C	-0.257
COc1ccccc1CC(NC(C)=O)C(=O)N1CCN(C(=O)c2cccs2)CC1 (centres undefined)	-0.248
COc1cc(C(=O)NNC(=O)NC2CCCCC2)cc(OC)c1OC	-0.104
CC(N=C(NS(=O)(=O)c1ccc(Cl)cc1)c1ccccc1)C(=O)O (centres undefined)	-0.217
COc1ccccc1/C=N/NC(=O)CCn1cnc2ccccc21	0.0317
CCOc1cc(S(=O)(=O)NC2CCCCC2)ccc1F	-0.215
O=C(CCc1ccc(S(=O)(=O)N2CCOCC2)cc1)Nc1ccc(N2CCOCC2)cc1	-0.442
CCCC(C)C(=O)Nc1nc(C)c(-c2csc(Nc3ccccc3OC)n2)s1 (centres undefined)	-0.235
Cn1nnc(NC(=O)c2cccc(OCc3ccccc3)c2)n1	-0.179
CCOC(=O)c1cccc(N2C(=O)C3C(C2=O)C2C=CC3C23CC3)c1 (centres undefined)	0.353
CCN1CCN(C(=O)c2cc(-c3cccnc3)nc3ccc(Br)cc23)CC1	-0.216
O=C(CCC1CCCCC1)NCc1ccccn1	-0.193
CC(C)(C)NC(=O)CSc1nnc(NC(=O)CCn2cnc3ccccc3c2=O)s1	0.0967
Cc1ccc(-n2nc3cc(Cl)c(NC(=O)c4ccco4)cc3n2)cc1	0.413
C(=N\N1CCN(Cc2ccccc2)CC1)/c1cccnc1	-0.288
O=C(Nc1ccccc1-c1nc2ccccc2o1)c1ccc2c(c1)OCCO2	0.0863
Cc1ccc(F)cc1NCC(=O)Nc1ccc(Br)cc1	-0.285
CC(c1ccco1)N(C(=O)COc1ccc(Cl)cc1)c1ccccn1 (centres undefined)	-0.0231
CC(C)CCn1c(N)c(S(=O)(=O)c2cccs2)c2nc3ccccc3nc21	0.344
CCOC(=O)C1=C(C)NC(=O)NC1c1ccc(N(C)C)cc1 (centres undefined)	0.13
N=C1C(c2ccccc2)=C(O)CN1c1cccc(S(=O)(=O)Nc2cccc(C(F)(F)F)c2)c1	-0.22
COC(=O)C1=C(C)Nc2nnnn2C1c1ccc(Cl)cc1Cl (centres undefined)	-0.322
COC(=O)c1ccc(CSc2nnc(-c3ccncc3)o2)o1	-0.111

Compound	z-score
Cc1csc(SCC(=O)c2cc(C)n(Cc3cccs3)c2C)n1	0.528
NC(=O)NC(Cc1ccccc1)C(=O)Nc1ccc(S(N)(=O)=O)cc1 (centres undefined)	0.135
CCCc1sc(N/N=C/c2ccccn2)nc1-c1ccc(Br)cc1	0.283
COC(=O)c1c(C(=O)OC)c(-c2ccc(Cl)c(Cl)c2)n2c1CCC2	-0.675
O=C1c2ccsc2SCCN1Cc1ccc(Cl)cc1Cl	-0.594
Cc1ccc(Nc2nc3c([nH]2)c(=O)[nH]c(=O)n3C)cc1	0.102
Cc1oc2c(C)c3oc(=O)c4c(c3cc2c1C)CCCC4	0.617
Cc1ccc(N2C(=O)CC(n3ccnc3)C2=O)cc1C (centres undefined)	-0.0484
CCOC(=O)CCC(=O)Nc1ccc(S(=O)(=O)N2CCC(C)CC2)cc1	0.245
O=C(CSCc1ccc(F)cc1)N1CCN(c2ccccc2)CC1	-0.296
COC(=O)CNC(=O)C12CC3(C)CC(C)(CC(C)(C3)C1)C2	-0.117
O=C(NCC1COc2ccccc2O1)C1C2C=CC3(CN(Cc4cccs4)C(=O)C13)O2 (centres undefined)	-0.0499
CC(=O)C(C)Oc1ncn(-c2ccccc2)n1 (centres undefined)	0.463
CCOc1ccc(-n2cccc2C=O)cc1	0.168
CCSCCc1nnc(NC(=O)Nc2cccc(C(F)(F)F)c2)s1	-0.118
O=C(CNC(=S)N(Cc1ccc(F)cc1)C1CCCCC1)NC1CC1	-0.0397
CC1CCC/C(=N/Nc2ccc([N+](=O)[O-])cc2[N+](=O)[O-])C1 (centres undefined)	-0.152
Cc1cc(NC(=O)COC(=O)c2cc3c(s2)CCC(C)C3)no1 (centres undefined)	-0.108
O=C(CCC1COc2ccccc2O1)N1CCCC1 (centres undefined)	0.675
CCCc1cc(=O)[nH]c(SCc2ccccc2Cl)n1	-0.584
N=c1oc2ccc3ccccc3c2cc1-c1nc(-c2ccccc2)cs1	active: 3.16
COc1ccccc1Nc1nc(C)cs1	-0.135
CC(C)C(=O)Nc1ccc2c(c1)oc1ccccc12	-0.329

Compound	z-score
CCn1c(SCC(=O)N2CCOCC2)nc2sc3c(c2c1=O)CCCC3	-0.67
COCCn1c(SCC(=O)c2[nH]c(C)c(C(C)=O)c2C)nc2ccccc21	-0.793
O=C(c1ccccc1)c1nnc(-c2ccccc2F)o1	0.0344
CCn1c(=S)sc2c(=O)[nH]c(C)nc21	-0.268
c1ccc(CNCC2COc3ccccc3O2)cc1 (centres undefined)	0.331
Cc1nc(C(F)(F)F)c(C(=O)NC(=O)Nc2ccccc2)s1	0.41
CC(NC(=O)c1ccc(F)cc1)C(c1cccs1)N1CCN(C)CC1 (centres undefined)	0.156
CCOC(=O)CCCNC(=O)CCNC(=O)c1ccc(OC(C)C)cc1	0.206
CNc1nnc(CSc2nc3ccccc3s2)s1	0.0158
Cc1ccc(S(=O)(=O)[N-]c2nc3ccccc3nc2-n2cc[n+](CCC(C)C)c2)cc1	-0.459
CCCN1CCN(CCCNC(=O)CCNC(=O)Cn2ccc3ccccc3c2=O)CC1	-0.163
Cc1cccc(-c2csc(NC(=O)c3cnccn3)c2C(=O)OC(C)C)c1	0.7
O=C(NC1CCCC1)C(c1ccccc1)N(C(=O)c1ccco1)C1CCCC1 (centres undefined)	-0.756
CCOC(=O)N1CCN(S(=O)(=O)c2cc(OCC(N)=O)c(C)cc2Cl)CC1	0.145
CCOc1ccc(N=Cc2c(O)cc(C)oc2=O)cc1	-0.173
O=C(CCCOc1ccccc1)Nc1ccc(S(=O)(=O)N2CCOCC2)cc1	-0.379
COc1ccccc1-c1nc(C#N)c(N2CCN(c3ccccc3)CC2)o1	-0.158
COc1ccc(S(=O)(=O)NCc2ccccn2)c(Cl)c1Cl	0.145
O=C(O)C1CCCCC1C(=O)Nc1cccc(C(=O)N2CCCCC2)c1 (centres undefined)	-0.189
CCOC(=O)C1=C(c2ccccc2)NC(SCC(=O)Nc2cccc(C)c2)=C(C#N)C1c1ccco1 (centres undefined)	-0.432
O=C(Nc1ccc(F)cc1)C(c1ccccc1)N1CCN(C(=O)c2ccco2)CC1 (centres undefined)	-0.404
CC1=NNC(=O)C1CCC(=O)N/N=C\c1ccccc1[N+](=O)[O-] (centres undefined)	-0.336
